According to the supplement of paper PMC9334596:
Several values for one entry are separate records, joined by “and”; a condition that tells them apart may be missing. Equal values may be shown once. Over roughly 5,300 compounds, “PER2::LUC luminescence relative to vehicle control” has its median near 0.96; the highest 2% begin near 1.3. The list shows a part of the results.

Test system: mPer2Luc MEF
Experiment: PER2::LUC luminescence relative to vehicle control (fold of vehicle); higher = higher PER2::LUC reporter signal
Conditions: 10 µM
Method in brief: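 Each value gives PER2::LUC luminescence as fold of vehicle control, measured with the ONE-Glo luciferase assay system in mouse embryonic fibroblasts carrying the mPer2Luc reporter. Cells grown in DMEM with 10% FBS at 37 °C and 5% CO2 were seeded at ~3000 per well in 384-well plates. Library compounds were added at 10 μM 48 h later, and readings were taken 24 h and 30 h after treatment.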

Compound | PER2::LUC luminescence (time after treatment 24 h) | PER2::LUC luminescence (time after treatment 30 h)
COc1cc2c(cc1OC)CN(CCc1ccc(NC(=O)c3cccc4c(=O)c5cccc(OC)c5[nH]c34)cc1)CC2 | 0.792 | 0.772
CCCCC(CC)COC(=O)c1ccccc1O (stereo not given) | 1.07 | 1.63
Cc1c(C)c2c(c(C)c1O)CC[C@@](C)(CCC[C@H](C)CCC[C@H](C)CCCC(C)C)O2 | 1.05 | 0.9
CCN(CCCc1ccccc1)CCCc1ccccc1 | 0.946 | 0.739
COc1cc2c(cc1OC)[C@H]1[C@@H](C)c3ccc(OC)c(OC)c3CN1CC2 | 0.954 | 0.973
NC(=O)NO | 0.956 | 0.989
Clc1ccccc1C(c1ccccc1)(c1ccccc1)n1ccnc1 | 0.786 | 0.863
Clc1ccc(COC(Cn2ccnc2)c2ccc(Cl)cc2Cl)cc1 (stereo not given) | 1.26 and 1.03 | 1.35 and 1.25
C[C@H](CCC(=O)NCC(=O)O)[C@H]1CC[C@H]2[C@@H]3[C@H](O)C[C@@H]4C[C@H](O)CC[C@]4(C)[C@H]3C[C@H](O)[C@]12C | 1.05 and 0.939 | 0.96 and 0.907
COc1cc(CC(=O)O)ccc1O | 0.99 | 0.874
Cc1cc(CC(C)CC(C)(C)C)n(O)c(=O)c1 (stereo not given) | 0.536 | 0.588
COc1c(OC)c2occc2c2oc(=O)ccc12 | 0.851 | 0.811
CC(C)=CCC/C(C)=C/COc1ccc2ccc(=O)oc2c1 | 0.946 | 1.02
CC(C)(C)c1ccc(S(=O)(=O)NCc2ccc(C(=O)Nc3cccnc3)cc2)cc1 | 0.867 | 0.466
CO[C@H]1C(=O)[C@]2(C)[C@@H](OC)C[C@H]3OC[C@@]3(OC(C)=O)[C@H]2[C@H](OC(=O)c2ccccc2)[C@]2(O)C[C@H](OC(=O)[C@H](O)[C@@H](NC(=O)OC(C)(C)C)c3ccccc3)C(C)=C1C2(C)C | 0.507 and 0.433 | 0.471 and 0.433
CCCC(C(=O)OCCN(CC)CC)(c1ccccc1)c1ccccc1 | 0.938 and 0.777 and 0.861 | 0.911 and 0.962 and 0.855
Cc1ccc(CN2CCNCC2)cc1NC(=O)CNc1ccc(F)c(F)c1 | 0.875 | 0.886
CCC1=C[C@H]2CN(C1)Cc1c([nH]c3ccccc13)[C@@](C(=O)OC)(c1cc3c(cc1OC)N(C)[C@H]1[C@@](O)(C(=O)OC)[C@H](OC(C)=O)[C@]4(CC)C=CCN5CC[C@]31[C@@H]54)C2 | 0.279 | 0.324
CN1CCC[C@H]1c1cccnc1 | 1.03 and 1.21 | 0.975 and 1.06
O=S(=O)(O)CCSSCCS(=O)(=O)O | 1.14 | 1.2
C[C@]12CC[C@H](O)CC1=CC[C@@H]1[C@@H]2CC[C@]2(C)C(n3cnc4ccccc43)=CC[C@@H]12 | 1.08 and 1.07 | 0.969 and 1.07
NC[C@@H]1CC[C@@H](N)[C@@H](O[C@H]2[C@H](O)[C@@H](O[C@H]3O[C@H](CO)[C@@H](O)[C@H](N)[C@H]3O)[C@H](N)C[C@@H]2N)O1 | 1.04 | 1.07

Compound | PER2::LUC luminescence (time after treatment 24 h) | PER2::LUC luminescence (time after treatment 30 h)
NC(=O)c1cccc(NC(=O)/C=C/c2c[nH]c3ccccc23)c1 | 1.08 | 1.06
CCCCCC#CCC#CCC#CCC#CCCCC(=O)O | 1.04 | 1.02
O=C(O)c1cc(=O)c2cc(Cl)ccc2[nH]1 | 0.977 | 0.883
NC(=O)C1=CN(C2OC(COP(=O)(O)OP(=O)(O)OC[C@H]3O[C@@H](n4cnc5c(N)ncnc54)C(OP(=O)(O)O)[C@H]3O)C(O)C2O)C=CC1 (stereo not given in full) | 0.834 | 0.999
Nc1nc(NC2CC2)cc(-c2cccc(Cl)c2Cl)n1 | 0.935 | 1.02
CC(O)C(O)[C@H]1CNc2nc(N)[nH]c(=O)c2N1 (stereo not given in full) | 1.17 | 1.11
CNS(=O)(=O)CCc1ccc2[nH]cc(C3CCN(C)CC3)c2c1 | 0.95 and 1.11 | 1 and 1.24
CC1=C(/C=C/C(C)=C/C=C/C(C)=C/C=C/C=C(C)/C=C/C=C(C)/C=C/C2=C(C)C(=O)[C@@H](O)CC2(C)C)C(C)(C)C[C@H](O)C1=O | 1.21 | 1.07
CC(=O)Oc1ccccc1C(=O)O | 1.06 and 1.18 | 1.01 and 0.996
O=C(O)[C@H]1NCCC[C@H]1C(=O)O (racemic) | 1.1 | 1.08
O=c1cc(-c2ccccc2)oc2cc(O)ccc12 | 1.48 | 1.84
CSCC1CN(/N=C/c2ccc([N+](=O)[O-])o2)C(=O)O1 (stereo not given) | 1.06 | 0.942
N=C(N)NS(=O)(=O)c1ccc(N)cc1 | 0.999 | 1.04
CN(C)c1cc(CNCC(C)(C)C)c(O)c2c1C[C@H]1C[C@H]3[C@H](N(C)C)C(O)=C(C(N)=O)C(=O)[C@@]3(O)C(O)=C1C2=O | 1.27 | 1.01
COc1ccc2ccc(=O)oc2c1CC=C(C)C | 0.857 | 0.886
O=C(Nc1nc2cccc(-c3ccc(CN4CCS(=O)(=O)CC4)cc3)n2n1)C1CC1 | 0.727 and 0.501 | 0.928 and 0.862
COc1cc2c3cc1Oc1cc(ccc1O)C[C@@H]1c4c(cc(OC)c(O)c4Oc4ccc(cc4)C[C@@H]3N(C)CC2)CC[N+]1(C)C | 1.05 and 0.925 | 1.02 and 0.942
CC1(C)[C@H](C(=O)O)N2C(=O)C[C@H]2S1(=O)=O | 1.03 | 0.651
OC(c1ccccc1)(c1ccccc1)C12CC[N+](CCOCc3ccccc3)(CC1)CC2 | 1.03 | 0.981
CN1CCc2cc(Cl)c(O)cc2[C@@H](c2ccccc2)C1 | 1.07 and 0.999 | 0.948 and 0.93
Nc1ccc(N2C(=O)c3ccccc3C2=O)c(Cl)c1 | 1.1 | 0.958
Cc1ncc(CO)c(CO)c1O | 0.974 | 0.821

Compound | PER2::LUC luminescence (time after treatment 24 h) | PER2::LUC luminescence (time after treatment 30 h)
O=C(O)c1ccc(-c2c[nH]c3ncc(-c4ccccc4)cc23)cc1C1CCCC1 | 0.972 | 1.01
CCc1c(C)[nH]c2c1C(=O)C(CN1CCOCC1)CC2 (stereo not given) | 1.03 | 1.05
Cc1ccc(NCCCc2ccccc2)c(N)c1 | 0.926 | 1.07
NC(=O)CNCCC(c1ccccc1)c1ccccc1 | 1.12 | 1.07
C=CC(=O)Nc1cc(Nc2nccc(-c3cn(C)c4ccccc34)n2)c(OC)cc1N(C)CCN(C)C | 0.054 | 0.012
C#Cc1cccc(Nc2ncnc3cc4c(cc23)OCCOCCOCCO4)c1 | 0.923 | 0.882
O=[N+]([O-])c1cncn1CCN1CCOCC1 | 1.08 | 1.05
CCOC(=O)c1cc(OC)c(OC)cc1NC(=O)c1cc(OC)c(OC)c(OC)c1 | 1.08 | 1.16
CC1=C(C(=O)O)N2C(=O)[C@@H](NC(=O)[C@H](N)C3=CCC=CC3)[C@H]2SC1 | 1.09 | 0.999
N#Cc1cccc2sc(C(=O)N=C(N)N)cc12 | 1.02 | 1.08
N[C@@H](CCC(=O)N[C@@H](CS)C(=O)NCC(=O)O)C(=O)O | 1 | 1.05
COc1ccc2c(c1)C[C@H](C(=O)Nc1ccc(-c3cn[nH]c3)cc1OCCN(C)C)CO2 | 0.472 | 0.452
COc1cc(C(=O)NCCCCCC(=O)O)cc(OC)c1OC | 1.03 | 1.03
c1ccc(-c2[nH]ncc2-c2ccnc3ccccc23)nc1 | 0.649 | 0.66
CCCSc1nc(N[C@@H]2C[C@H]2c2ccc(F)c(F)c2)c2nnn([C@@H]3C[C@H](OCCO)[C@@H](O)[C@H]3O)c2n1 | 0.714 | 0.753
C=CC(=O)Nc1cccc(Nc2nc(Nc3ccc(Oc4ccnc(C(=O)NC)c4)cc3)ncc2F)c1 | 0.353 | 0.536
Cc1nnsc1C(=O)Nc1ccc(-n2nc(C(F)(F)F)cc2C(F)(F)F)cc1 | 1.02 | 0.946
Cn1cc(-c2cnn3c(N)c(Br)c([C@@H]4CCCNC4)nc23)cn1 | 0.427 and 0.512 | 0.595 and 0.48
N[C@H](CCC(=O)O)C(=O)O | 1.1 | 1.01
N[C@@H]1CONC1=O | 0.926 and 0.804 | 0.996 and 1.09
O=C(O)COCCN1CCN(C(c2ccccc2)c2ccc(Cl)cc2)CC1 (stereo not given) | 1.26 | 1.1
CCCCC(CC)CCC(CC(C)C)OS(=O)(=O)O (stereo not given) | 1.04 | 0.97

Compound | PER2::LUC luminescence (time after treatment 24 h) | PER2::LUC luminescence (time after treatment 30 h)
O=C(O)/C=C/c1ccc(O)c(O)c1/C(=C\c1ccc(O)c(O)c1)C(=O)O | 1.15 | 1.02
COc1ccc2cc([C@H](C)CO)ccc2c1 | 0.806 | 0.824
O=C1c2ccccc2C(=O)C1c1ccc(Cl)cc1 | 0.996 and 1.05 | 1.07 and 1.16
C#C[C@]1(OC(C)=O)CC[C@H]2[C@@H]3CCC4=CC(=NO)CC[C@@H]4[C@H]3CC[C@@]21CC (mixture of isomers) | 0.98 | 0.991
N[C@H]1C[C@@H]1c1ccc(-c2cccc(O)c2)cc1 | 1.15 | 1.08
O=C(Nc1ccc(C(O)(C(F)(F)F)C(F)(F)F)cc1)c1ccc(C(F)(F)F)cc1 | 0.687 | 0.47
Clc1ccc(CO/N=C(\Cn2ccnc2)c2ccc(Cl)cc2Cl)c(Cl)c1 | 0.889 | 1.15
O=C(O)C1CCCN(CCC=C(c2ccccc2)c2ccccc2)C1 (stereo not given) | 1.05 | 0.977
CC(C)c1cc(-c2n[nH]c(=O)n2-c2ccc3c(ccn3C)c2)c(O)cc1O | 0.062 | 0.052
CC(=O)O[C@]1(C(C)=O)CC[C@H]2[C@@H]3C=C(Cl)C4=CC(=O)[C@@H]5C[C@@H]5[C@]4(C)[C@H]3CC[C@@]21C | 1.03 | 1.11
CCCN(CCc1cccs1)C1CCc2c(O)cccc2C1 (racemic) | 0.965 | 0.906
O=C(O)/C=C/c1ccc(O)c(O)c1 | 0.886 | 0.894
CCCCc1nc2cc(/C=C/C(=O)NO)ccc2n1CCN(CC)CC | 0.364 and 0.349 | 0.318 and 0.324
CNCCn1c(=O)c2cc(OC)c(OC)cc2c2cnc3cc4c(cc3c21)OCO4 | 0.404 | 0.368
Clc1ccc(Cn2c(CN3CCCC3)nc3ccccc32)cc1 | 1.06 and 0.848 | 0.924 and 0.834
COc1cc2nc(N(C)CCCNC(=O)C3CCCO3)nc(N)c2cc1OC (stereo not given) | 0.889 | 0.853
CS(=O)(=O)c1ccc([C@@H](CC2CCCC2)C(=O)Nc2nccs2)cc1 | 0.951 | 0.553
C[C@@](N)(C(=O)O)c1ccc(C(=O)O)cc1 | 1.01 | 0.938
CCCCCOc1ccc(-c2cc(-c3ccc(C(=O)N[C@H]4C[C@@H](O)[C@@H](O)NC(=O)[C@@H]5[C@@H](O)[C@@H](C)CN5C(=O)[C@H]([C@H](O)CC(N)=O)NC(=O)[C@H]([C@H](O)[C@@H](O)c5ccc(O)c(OS(=O)(=O)O)c5)NC(=O)[C@@H]5C[C@@H](O)CN5C(=O)[C@H]([C@@H](C)O)NC4=O)cc3)no2)cc1 | 0.871 | 0.869
